# Test results from the supplement of paper PMC9046079.
# ± gives the standard deviation of the averaged measurements. This is one part of the list.
# Legend:
# [1] = tested on: murine small intestinal organoids (ENR+CD Paneth differentiation); assay: cellular ATP (CellTiter-Glo 3D) relative to plate median (log10 fold change); higher = more viable cells; conditions: 6 d
# [2] = tested on: murine small intestinal organoids (ENR+CD Paneth differentiation); assay: carbachol-stimulated secreted lysozyme activity relative to plate median (log10 fold change); higher = more Paneth cell lysozyme secretion; conditions: 6 d, carbachol 10 µM
# [3] = tested on: murine small intestinal organoids (ENR+CD Paneth differentiation); assay: basal (non-stimulated) secreted lysozyme activity relative to plate median (log10 fold change); higher = more Paneth cell lysozyme secretion; conditions: 6 d
# 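Wherever basal (non-stimulated) secreted lysozyme activity relative to plate median is given: ISC-enriched organoid precursors grown as 2.5D pseudo-monolayer on Matrigel, compound given on day 0 and day 3, plate values LOESS-normalized before median fold change, three murine donors.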
# 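Wherever cellular ATP (CellTiter-Glo 3D) relative to plate median is given: 2.5D pseudo-monolayer culture of ISC-enriched organoids partly embedded atop Matrigel, compound added on day 0 and again on day 3, per-plate LOESS correction before median fold change.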
Compound,cellular ATP (log10) ([1]; 0.08 µM),cellular ATP (log10) ([1]; 0.4 µM),cellular ATP (log10) ([1]; 2 µM),cellular ATP (log10) ([1]; 10 µM),carbachol-stimulated secreted lysozyme activity (log10) ([2]; 0.08 µM),carbachol-stimulated secreted lysozyme activity (log10) ([2]; 0.4 µM),carbachol-stimulated secreted lysozyme activity (log10) ([2]; 2 µM),carbachol-stimulated secreted lysozyme activity (log10) ([2]; 10 µM),basal (log10) ([3]; 0.08 µM),basal (log10) ([3]; 0.4 µM),basal (log10) ([3]; 2 µM),basal (log10) ([3]; 10 µM)
O=C(C[S+]([O-])Cc1ccco1)NC/C=C\COc1cc(CN2CCCCC2)ccn1 (centres undefined) [Lafutidine],0.152 ± 0.17,0.145 ± 0.12,0.138 ± 0.052,-0.0984 ± 0.23,0.011 ± 0.022,0.0357 ± 0.069,0.0987 ± 0.068,-0.0162 ± 0.011,0.0427 ± 0.092,0.0068 ± 0.036,0.0367 ± 0.029,0.0755 ± 0.07
C[C@@H]1CCN(C(=O)CC#N)C[C@@H]1N(C)c1ncnc2[nH]ccc12,0.154 ± 0.05,0.274 ± 0.13,0.082 ± 0.14,0.0915 ± 0.33,-0.024 ± 0.11,0.064 ± 0.013,0.105 ± 0.082,0.0198 ± 0.032,-0.0147 ± 0.064,0.043 ± 0.021,0.025 ± 0.015,0.0454 ± 0.067
O=C(Oc1cc(S(=O)(=O)c2ccccc2)ccc1[N+](=O)[O-])c1ccc(Cl)cc1,0.275 ± 0.29,0.288 ± 0.16,-0.18 ± 0.67,0.199 ± 0.12,0.302 ± 0.098,0.0961 ± 0.18,0.0998 ± 0.12,0.0749 ± 0.12,0.0913 ± 0.073,0.0246 ± 0.094,0.0237 ± 0.11,-0.0308 ± 0.082
CC(C)c1cc(-c2n[nH]c(=O)n2-c2ccc3c(ccn3C)c2)c(O)cc1O [Ganetespib (STA-9090)],-1.45 ± 0.47,-2.1 ± 0.15,-1.72 ± 0.54,-1.62 ± 0.56,-0.347 ± 0.0059,-0.33 ± 0.048,-0.335 ± 0.0035,-0.349 ± 0.042,-0.141 ± 0.076,-0.155 ± 0.078,-0.15 ± 0.054,-0.136 ± 0.073
c1cc(-c2cnn3cc(-c4ccc(N5CCNCC5)cc4)cnc23)c2cccnc2c1,0.238 ± 0.18,0.129 ± 0.37,-0.475 ± 0.22,-1.26 ± 0.6,0.133 ± 0.16,-0.0371 ± 0.031,-0.342 ± 0.1,-0.491 ± 0.031,0.0946 ± 0.11,0.0512 ± 0.07,-0.217 ± 0.093,-0.273 ± 0.11
CCc1c(C(=O)NCCc2ccc(N3CCCCC3)cc2)[nH]c2ccc(Cl)cc12,0.278 ± 0.29,0.0723 ± 0.079,0.362 ± 0.19,0.27 ± 0.1,0.157 ± 0.24,0.0444 ± 0.17,0.0386 ± 0.17,0.00914 ± 0.25,0.122 ± 0.13,0.0511 ± 0.022,0.0785 ± 0.051,0.0285 ± 0.037
COc1c(O)cc2c(c1O)[C@@H]1O[C@H](CO)[C@@H](O)[C@H](O)[C@H]1OC2=O [Bergenin],0.288 ± 0.12,0.245 ± 0.057,0.205 ± 0.37,0.344 ± 0.25,0.154 ± 0.084,0.0318 ± 0.029,0.123 ± 0.15,0.0725 ± 0.098,0.164 ± 0.092,0.0978 ± 0.11,0.0803 ± 0.056,0.103 ± 0.093
NC1CC1c1ccc(-c2cccc(O)c2)cc1 (centres undefined),0.0943 ± 0.23,0.138 ± 0.24,0.128 ± 0.054,0.094 ± 0.096,0.048 ± 0.043,0.0111 ± 0.086,-0.0297 ± 0.03,-0.0781 ± 0.095,-0.000114 ± 0.0089,-0.0111 ± 0.08,0.0209 ± 0.027,-0.0907 ± 0.057
Cc1cc(Nc2ncc(Cl)c(Nc3ccccc3S(=O)(=O)C(C)C)n2)c(OC(C)C)cc1C1CCNCC1,0.135 ± 0.26,0.0041 ± 0.13,-0.364 ± 0.44,-1.29 ± 0.75,0.0589 ± 0.11,-0.0824 ± 0.074,-0.302 ± 0.17,-0.577 ± 0.015,0.0614 ± 0.18,-0.0534 ± 0.027,-0.195 ± 0.039,-0.338 ± 0.073
C[C@@H]1COCCN1c1cc(C2(S(C)(=O)=O)CC2)nc(-c2cccc3[nH]ccc23)n1,-0.21 ± 0.46,-0.218 ± 0.35,-1.05 ± 0.42,-0.573 ± 0.14,0.0242 ± 0.053,-0.24 ± 0.27,-0.449 ± 0.024,-0.396 ± 0.045,0.0419 ± 0.12,-0.14 ± 0.11,-0.215 ± 0.077,-0.261 ± 0.084
CC(C)(C)c1nc(-c2cccc(NS(=O)(=O)c3c(F)cccc3F)c2F)c(-c2ccnc(N)n2)s1,-0.134 ± 0.14,0.0108 ± 0.098,-0.279 ± 0.13,-0.8 ± 0.028,0.179 ± 0.1,0.0653 ± 0.03,-0.00753 ± 0.069,-0.455 ± 0.14,0.0953 ± 0.083,0.0491 ± 0.049,-0.00073 ± 0.12,-0.25 ± 0.15
Cc1cn([C@H]2C=C[C@@H](CO)O2)c(=O)[nH]c1=O [Stavudine (d4T)],-0.0325 ± 0.27,-0.0509 ± 0.47,-0.331 ± 0.74,-0.265 ± 0.55,-0.00609 ± 0.29,-0.202 ± 0.29,-0.124 ± 0.18,-0.277 ± 0.24,0.0171 ± 0.13,-0.0804 ± 0.16,-0.0905 ± 0.2,-0.155 ± 0.14
CC(=O)c1cc([N+](=O)[O-])c(Sc2ccc(F)cc2F)s1,-0.216 ± 0.24,0.049 ± 0.2,-0.134 ± 0.076,-0.13 ± 0.13,-0.253 ± 0.26,0.0734 ± 0.11,-0.0544 ± 0.034,-0.149 ± 0.09,0.0388 ± 0.16,-0.00469 ± 0.021,0.0285 ± 0.088,-0.0559 ± 0.073
O=C(/C=C\n1cnc(-c2cc(C(F)(F)F)cc(C(F)(F)F)c2)n1)NNc1cnccn1,0.21 ± 0.12,-0.657 ± 0.51,-0.894 ± 0.28,-1.88 ± 0.45,0.321 ± 0.066,-0.258 ± 0.32,-0.486 ± 0.049,-0.529 ± 0.011,0.2 ± 0.14,-0.266 ± 0.088,-0.28 ± 0.12,-0.284 ± 0.11
NCC(=O)Nc1ccc(-n2nc(C(F)(F)F)cc2-c2ccc3c(ccc4ccccc43)c2)cc1,0.205 ± 0.15,0.114 ± 0.36,0.233 ± 0.13,0.0776 ± 0.34,0.144 ± 0.031,0.197 ± 0.03,0.0447 ± 0.032,-0.187 ± 0.03,0.0868 ± 0.037,0.0328 ± 0.039,0.0528 ± 0.041,-0.0485 ± 0.036
Cc1[nH]c(/C=C2\C(=O)Nc3ccc(S(=O)(=O)N(C)c4cccc(Cl)c4)cc32)c(C)c1C(=O)N1CCN(C)CC1,-0.294 ± 1.4,0.3 ± 0.12,0.114 ± 0.073,-0.113 ± 0.29,-0.12 ± 0.3,0.358 ± 0.4,0.0982 ± 0.13,-0.21 ± 0.29,-0.0218 ± 0.22,0.133 ± 0.058,0.0338 ± 0.075,-0.0988 ± 0.15
O=C1CC(=O)c2c(Cl)c(Cl)c(Cl)c(Cl)c21,0.0021 ± 0.14,0.0222 ± 0.051,-0.095 ± 0.15,-0.139 ± 0.27,-0.00177 ± 0.11,0.0144 ± 0.11,-0.0978 ± 0.087,-0.1 ± 0.064,0.0279 ± 0.058,-0.0131 ± 0.047,-0.0745 ± 0.0071,-0.0151 ± 0.11
